Source: publication PMC9574860, “Chemical Toolkit for PARK7: Potent, Selective, and High-Throughput” (Journal of Medicinal Chemistry, 2022)
The whole screen tested about 7,900 compounds, of which about 400 (5.1%) showed an effect of 50% or more. Some of the results follow.

Target: Parkinson's disease protein 7 (PARK7/DJ1) (human, UniProt Q99497)
Assay: primary screen, percent inhibition; read as competition with a fluorescent probe by fluorescence polarization; higher = more effect of the substance
Conditions: 100 µM
Outline: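 Covalent fragments at 100 μM final were incubated 2 h with 0.2 μM PARK7, then 20 nM probe JYQ-107 added for a further 2 h. Fluorescence polarization read at 480/520 nm; relative FP loss versus reference controls gave remaining enzyme activity.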

Sequence of Parkinson's disease protein 7 (PARK7/DJ1) (Q99497 whole entry, looked up): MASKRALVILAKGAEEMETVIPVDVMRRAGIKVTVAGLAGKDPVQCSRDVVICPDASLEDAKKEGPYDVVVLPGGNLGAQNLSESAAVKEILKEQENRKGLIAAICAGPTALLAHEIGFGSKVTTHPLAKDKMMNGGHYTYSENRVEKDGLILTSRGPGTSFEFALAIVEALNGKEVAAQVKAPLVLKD

| Structure (SMILES) | Inhibition % |
| --- | --- |
| O=c1onc(-c2ccccn2)n1Cc1cccc(F)c1 | 29.8% |
| C=CC(=O)N1CCOCC1c1nc(-c2cccs2)no1 (stereo not drawn) | 6.32% |
| CNC(=O)C(C#N)=Cc1cc(Cl)ccc1OC(F)F | 7.7% |
| COCCCn1c(S)nc2ncccc2c1=O | 3.34% |
| Cc1cc(S)ncn1 | 31.1% |
| O=C1OCCC1Sc1nnnn1C1CC1 (stereo not drawn) | 5.76% |
| O=C(CCl)NCc1cccc(Cl)c1 | 10.9% |
| N#Cc1ncc(N)cc1Cl | 18.7% |
| OC1CCCC(CCl)C1 (stereo not drawn) | 7.28% |
| CCc1ccccc1NC(=O)CCl | 13.2% |
| C=CC(=O)N1CCOC(c2ccccc2F)C1 (stereo not drawn) | 9.24% |
| O=C1CC(c2ccccc2Cl)N1 (stereo not drawn) | 2.06% |
| CC1(CNC(=O)c2ccc3c(=O)[nH]c(S)nc3c2)COC1 | 10.7% |
| C=CC(=O)N[C@@]12CCC[C@]1(OC)OCC2 (racemic) | 9.38% |
| C=CC(=O)N1Cc2cccc(F)c2C1 | 5.57% |
| N#Cc1ncn(Cc2ccc(C(F)(F)F)cc2)n1 | 5.17% |
| CN1C2CCC1CN(c1ccc(C#N)nc1)CC2 (stereo not drawn) | 8.89% |
| CN(Cc1cccc(F)c1)S(=O)(=O)F | 8.98% |
| CC1(C)Cc2cc(B3OC(C)(C)C(C)(C)O3)ccc2O1 | 3.19% |
| C=CC(=O)N1CCN(C(C)=O)CC1C (stereo not drawn) | 5.08% |
| Cc1cc(CN(C)c2ccc(C#N)nc2)no1 | -2.05% |

| Structure (SMILES) | Inhibition % |
| --- | --- |
| C=CC(=O)N1CCN(C(C)=O)CC1(C)C | 2.26% |
| Cc1cn(C)nc1B1OC(C)(C)C(C)(C)O1 | 23.1% |
| CC1CC(N)CCN1C(=O)C=CC1CCCCC1 (stereo not drawn) | 6.96% |
| NCC1CCN(C(=O)C=Cc2cc3ccccc3o2)C1 (stereo not drawn) | 5.72% |
| CC1COCCN1C(=O)CN1CCSC1=O (stereo not drawn) | 3.13% |
| N#Cc1ncn(CC(=O)NCCc2ccccc2)n1 | 5.21% |
| CC(=O)N1CCN(C(=O)C=Cc2ccc(Cl)s2)CC1 | 6.8% |
| Cn1cc(S(=O)(=O)Oc2cccc(F)c2C#N)cn1 | 4.8% |
| C=CC(=O)N1CCC(Cc2cnn(C)c2)C1 (stereo not drawn) | 2.37% |
| C=CC(=O)N1CC(Cc2cccs2)C1 | 12.5% |
| Cc1nnc(S)c(C#N)c1C | 53.3% |
| Cc1cc2nnc(SC3CC(C)OC3=O)n2c(C)n1 (stereo not drawn) | 6.64% |
| CCOc1cc(S(=O)(=O)n2cccn2)ccc1F | 0.878% |
| C=CC(=O)N1CCCC(c2ncccn2)C1 (stereo not drawn) | 3.35% |
| O=S(=O)(F)Cc1ccccc1 | 8.98% |
| C=CC(=O)N1CCCCC(SC)C1 (stereo not drawn) | 9.96% |
| N#Cc1ncn(Cc2ccc(C(N)=O)cc2)n1 | 8.99% |
| C=CC(=O)N1C2CCC1c1cnc(C(C)C)nc1C2 (stereo not drawn) | 9.29% |
| COc1cc(C(=O)O)ccc1S(=O)(=O)F | 31.2% |
| Oc1ccnc(S)n1 | 2.99% |
| CC1(C)OB(c2cccc(OCCCN3CCCC3)c2)OC1(C)C | 1.19% |

| Structure (SMILES) | Inhibition % |
| --- | --- |
| C=CC(=O)N1CCOC(COc2ccccc2)C1 (stereo not drawn) | 11% |
| CCNC(=O)N1CCC(NC(=O)c2cccnc2S)C1 (stereo not drawn) | 37.6% |
| Cc1cc(C)n(Cc2ccc(B3OC(C)(C)C(C)(C)O3)cc2)n1 | 0.0918% |
| N#Cc1nnc(-c2ccccc2)s1 | 11.8% |
| COc1cc(C=C(C#N)C(=O)NC(C)C)cc(Cl)c1O | -0.272% |
| C=CC(=O)NC1(c2ccc(C(F)(F)F)cc2)CC1 | 6.09% |
| CN(Cc1ccco1)c1ccc(C#N)nc1 | 25.1% |
| C=CC(=O)N1CC(S(=O)(=O)CC)C1 | 5.18% |
| OB(O)c1ccccc1CN1CCCCC1 | 2.94% |
| C=CC(=O)N1CC(S(C)(=O)=O)C1 | 8.7% |
| O=C(O)Cn1nc(-c2ccc(F)cc2)oc1=O | 12.4% |
| Cl.O=C(CCl)c1csc(N2CCCCC2)n1 | 2.02% |
| CC1(C)CCCN1C(=O)CCl | 10.8% |
| C=CC(=O)N1CCCCC1Cn1cccn1 (stereo not drawn) | 1.43% |
| C=CC(=O)NC1CCC(=O)N(C)C1 (stereo not drawn) | 10.9% |
| C=CC(=O)N1CCc2nc(CC)ncc2C1 | 10.8% |
| O=C(CCl)NCc1ccc(Cl)s1 | 15.9% |
| CC1(C)OB(c2ccc(S(C)(=O)=O)c(C#N)c2)OC1(C)C | 5.87% |
| OCCc1cnc(S)nc1 | 8.67% |
| N#Cc1ccc(C(=O)NNC(=O)CCl)cc1 | 6.48% |
| CC1(C)CNC(=S)NC1 | 2.51% |

| Structure (SMILES) | Inhibition % |
| --- | --- |
| Cc1ccc(Sc2ccc(NC(=O)CCl)cc2)c(C)c1 | 25.5% |
| O=C(Nc1cccc(S(=O)(=O)F)c1)c1sccc1OC(F)F | 93.1% |
| CNC(=O)CNS(=O)(=O)C=Cc1ccccc1 | 6.07% |
| CC(NC(=O)C(C#N)=Cc1cccnc1)c1ccccc1 (stereo not drawn) | -2.97% |
| O=C(c1cc(Cl)ccc1O)N1CCC(C2OCCO2)CC1 | 6.92% |
| N#Cc1ccc(C(=O)O)c(=O)[nH]1 | 83.7% |
| Cc1ccc(C2CO2)cc1C (stereo not drawn) | 29.8% |
| CC1CCCN(c2ccc(C#N)nc2)CC1 (stereo not drawn) | 11.3% |
| C=CC(=O)N1CC(=O)N(CCOC)C1 | 8.08% |
| NS(=O)(=O)c1ccc(NC(=O)Oc2ccccc2)cc1 | 5.06% |
| CCC(NC(=O)CCl)c1ccc(Cl)cc1 (stereo not drawn) | 14.1% |
| Cc1ccc2[nH]c(C3CCCN3C(=O)c3ccc(B(O)O)cc3)nc2c1 (stereo not drawn) | 2.75% |
| Cn1ncc(C2CC2)c1CN1CCC(B(O)O)C1 (stereo not drawn) | 2.09% |
| Cc1ccc(C=C(C#N)C(=O)O)cc1F | 6.58% |
| COc1cncc(C#N)n1 | 9.79% |
| CC1(C)COC(=O)C1NC(=O)Nc1ccc(C2CC2)nn1 (stereo not drawn) | 8.72% |
| O=S(=O)(C=Cc1ccccc1Cl)Nc1ccncc1 | 10.1% |
| N#CC(=Cc1cccnc1)C(=O)NC1CCCCC1 | 3.87% |
